Measurements reported in patent US20200131257A1 (YALE UNIVERSITY, published 2020).

Molecular target: T1, R203W/L194F-mutated FGF21 (FGF21WF) (human, UniProt Q9NSA1 29-209)
T1 construct: also called FGF21 carrying a double L194F/R203W mutations
T1 chain: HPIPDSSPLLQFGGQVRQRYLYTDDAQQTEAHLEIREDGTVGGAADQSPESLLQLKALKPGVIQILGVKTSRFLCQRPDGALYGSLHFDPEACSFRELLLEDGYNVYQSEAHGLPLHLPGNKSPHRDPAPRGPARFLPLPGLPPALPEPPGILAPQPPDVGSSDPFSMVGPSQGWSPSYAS
Test: MST: sKLB titrated into fluorescently labelled FGF21 R203W/L194F, plotted as fraction bound
Excerpt: Purified FGF21 was fluorescently labeled using the Monolith Protein Labeling Kit RED-NHS (NanoTemper Technologies) according to the instruction provided by the manufacturer. […] The thermophoretic movements of fl-FGF21 in each samples were monitored (LED 20%, IR laser 20%,) and the normalized fluorescence intensities (FNorm), defined as Fₕₒₜ/Fcold (where Fcold and Fₕₒₜ refer to the fluorescence intensities averaged over […] before IR laser is on and 29 s after IR laser is on, respectively), for each samples were plotted against the concentrations of sKLB. For the competition assays, the thermophoresis of fl-FGF21 was measured for samples where the concentration of fl-FGF21 and sKLB mixture was kept constant with the concentrations of GST-FGF21CT varying from 2.1 nM to 35000 nM. All the data were analyzed with the MO Affinity Analysis software (NanoTemper Technologies) provided by the manufacturer.
As endocrine FGFs play important roles in the control of metabolic processes, a variety of approaches have been utilized to develop novel therapeutics that retain (and exceed in potency) the beneficial stimulatory responses of FGF19 and or FGF21 while minimizing the side effects caused by these two hormones. […] In certain non-limiting embodiments, potency of FGF21 can be enhanced by introducing mutations into its C-terminal tail that strengthen interactions with β-Klotho. […]

EC50 (read off the curve): ~10 nM
B1: extracellular domain of human β-Klotho (sKLB) (receptor)
chain: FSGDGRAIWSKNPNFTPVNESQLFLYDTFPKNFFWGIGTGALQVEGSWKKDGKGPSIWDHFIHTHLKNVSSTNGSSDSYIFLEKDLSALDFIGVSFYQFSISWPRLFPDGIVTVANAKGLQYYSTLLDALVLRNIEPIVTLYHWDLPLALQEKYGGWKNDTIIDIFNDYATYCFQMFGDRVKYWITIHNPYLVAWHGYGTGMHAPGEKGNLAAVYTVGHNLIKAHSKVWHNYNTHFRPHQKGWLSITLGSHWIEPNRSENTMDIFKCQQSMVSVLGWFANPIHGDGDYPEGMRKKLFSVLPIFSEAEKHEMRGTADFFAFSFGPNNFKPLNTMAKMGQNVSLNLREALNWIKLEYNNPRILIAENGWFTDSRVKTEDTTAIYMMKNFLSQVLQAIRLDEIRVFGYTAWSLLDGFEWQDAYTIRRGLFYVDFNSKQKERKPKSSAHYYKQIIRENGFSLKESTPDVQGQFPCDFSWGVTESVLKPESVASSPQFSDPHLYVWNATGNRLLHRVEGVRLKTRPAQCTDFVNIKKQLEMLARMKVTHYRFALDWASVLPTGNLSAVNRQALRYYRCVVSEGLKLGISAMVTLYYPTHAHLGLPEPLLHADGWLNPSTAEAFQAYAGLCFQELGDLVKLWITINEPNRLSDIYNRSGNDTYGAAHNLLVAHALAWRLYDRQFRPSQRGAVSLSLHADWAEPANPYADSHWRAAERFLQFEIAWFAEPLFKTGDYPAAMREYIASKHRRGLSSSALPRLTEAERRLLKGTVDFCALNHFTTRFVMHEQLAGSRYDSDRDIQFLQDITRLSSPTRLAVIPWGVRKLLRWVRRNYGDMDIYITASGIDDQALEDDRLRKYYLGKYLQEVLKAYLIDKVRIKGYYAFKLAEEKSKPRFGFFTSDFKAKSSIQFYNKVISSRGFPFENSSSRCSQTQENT
notes: Made in HEK293-EBNA cells; also called WT sKLB; not shown: remnant of the TEV protease cleavage site / four-Gly linker left after the Fc tag was cut off
